# According to PubChem BioAssay (Tox21):
# Several values for one entry are separate records, joined by “and”; a condition that tells them apart may be missing. Equal entries are not always repeated. Inconclusive results, whose numbers are uncertain, are shown with a selection of clear calls. Potencies beside an inconclusive call are fits to weak or partial responses and may not hold up. Activity calls are given as the source filed them. The call rests on the fitted dose curve; in most records, active means well fitted inhibition curve with a large enough effect in the repeat runs; inconclusive means weak or mixed curves; inactive means no such curve, though single readings can be large or run the other way.
# Assay: qHTS assay to identify small molecule antagonists of the thyroid receptor (TR) signaling pathway (AID 743065); further: nearly all actives have a fitted effect of over 55% in size
# Conditions: GH3.TRE-Luc, T3-stimulated luciferase inhibition, 23.5 h; series mostly up to 70.3 µM; activity, negative = inhibition: at the top concentration
# Source text: U.S. Tox21 Program National Center for Advancing Translational Sciences [NCATS] NIH Chemical Genomics Center [NCGC] U.S. Environmental Protection Agency [EPA] National Institutes of Environmental Health Sciences [NIEHS] National Toxicology Program [NTP] U.S. Food and Drug Administration [FDA] Tox21 Assay Overview: Thyroid receptor (TR), a nuclear hormone receptor, plays an important role in development, proliferation, differentiation, metabolism, brain function, and cardiovascular system. […] To profile the Tox21 10K compound library in TR signaling, a cell-based GH3-TRE-Luc assay (GH3.TRE-Luc cell line, developed by the laboratory of Dr. Albertinka J. Murk, Wageningen University) was used to measure the inhibition of TR. GH3 (rat pituitary tumor) cells stably expressing a TR activity sensor consisting of two TR response elements and a luciferase reporter gene.
# Tox21 Assay Protocol Summary: GH3.TRE-Luc cells were dispensed at 1500 cells/4 uL/well into 1536-well white solid bottom plates using a Multidrop Combi dispenser (Thermo Fisher Scientific Inc., Waltham, MA). After the assay plates were incubated at 37 C for 4 hours, 23 nL of library compound or DMSO controls was transferred to the assay plates by a pintool station (Kalypsys, San Diego, CA), followed by addition of 1 ul of T3 (1 nM, final concentration in the wells) to stimulate TR transactivation. The assay plates were incubated at 37 C for 23.5 h, and then 1 uL of CellTiter-Fluor reagent (Promega, Madision, WI) of measuring cytotoxicity was added to each well using a Bioraptr Flying Reagent Dispenser (FRD) workstation (Beckman Coulter, Indianapolis, IN, USA). The plates were incubated at 37 C and 5% CO2 for additional 30 min, and fluorescence intensity was measured by a ViewLux plate reader (PerkinElmer, Shelton, CT). For measuring luciferase reporter gene activity, 4 uL of ONE-Glo Luciferase Assay reagent (Promega) was added to each well using a Bioraptr FRD (Beckman Coulter), followed by 30 min incubation at room temperature. The luminescence intensity of plates was recorded by a ViewLux plate reader (PerkinElmer, Shelton, CT).
# On the % scale 0 is the no-effect control and ±100 the full control effect; potency means the concentration at half of the fitted maximal effect; tags describe the fitted curve by direction and shape.
SMILES,Potency,"activity, negative = inhibition"
CCOC(=O)C1OC1c1ccccc1 (stereo not given),"inconclusive: 70 µM [inhibitor, partial curve, poor fit] and inconclusive: 19.3 µM [inhibitor, partial curve, poor fit]",–
CN(C)CCN1C(=O)c2ccccc2N(C)c2ccccc21,"inconclusive: 29.8 µM [inhibitor, partial curve, poor fit]",–
Cc1ccc(Cl)c(Nc2ccccc2C(=O)O)c1Cl,"inconclusive: 33.5 µM [inhibitor, single point]",–
O=C(O)Cc1cc(I)c(Oc2cc(I)c(O)c(I)c2)c(I)c1,"inconclusive: 47.6 µM [inhibitor, single point]",–
Oc1ccc2c(c1)OCO2,inconclusive: 60.6 µM [inhibitor],–
CN(C/C=C/C#CC(C)(C)C)Cc1cccc2ccccc12,"inconclusive: 33.5 µM [inhibitor, single point]",–
CCC(C)c1cc([N+](=O)[O-])cc([N+](=O)[O-])c1OC(=O)OC(C)C (stereo not given),active: 21.7 µM,–
CC(=O)Oc1ccc2c(c1)CC[C@@H]1[C@@H]2CC[C@]2(C)[C@@H](O)CC[C@@H]12,active: 26.6 µM,–
Cc1ccc(C(=O)c2cc(O)c(O)c([N+](=O)[O-])c2)cc1,"inconclusive: 33.5 µM [inhibitor, single point]",–
CC[C@H]1CN2CCc3cc(OC)c(OC)cc3[C@@H]2C[C@@H]1C[C@H]1NCCc2cc(OC)c(OC)cc21,active: 37.6 nM and active: 38.7 nM,–
C[n+]1c2cc(N)ccc2cc2ccc(N)cc21 (tested in a mixture with another compound),active: 6.68 µM,–
CC(C)=CCC1C(=O)N(c2ccccc2)N(c2ccccc2)C1=O,active: 21.1 µM,–
O=C(/C=C/C=C/c1ccc2c(c1)OCO2)N1CCCCC1,"inconclusive: 68.7 µM [inhibitor, single point] and inconclusive: 54.5 µM [inhibitor, partial curve]",–
CCOC(=O)Cn1cccc1-c1nc(-c2ccc(OC)cc2)c(-c2ccc(OC)cc2)s1,active: 13.3 µM,–
CNc1ccc(O)cc1,"inconclusive: 13.7 µM [inhibitor, partial curve, poor fit]",–
C=C(C)C(=O)OCC[N+](C)(C)C,"inconclusive: 68.3 µM [inhibitor, single point]",–
O=c1c(-c2ccc(O)cc2)coc2cc(O)cc(O)c12,active: 11.9 µM and active: 47.7 µM and active: 21.7 µM,–
C=C1CC[C@H](O)C/C1=C\C=C1/CCC[C@]2(C)[C@@H]([C@H](C)CCCC(C)C)CC[C@@H]12,active: 21.1 µM and active: 30.4 µM,–
Oc1ccc2c(c1)Cc1ccccc1-2,"inconclusive: 77 µM [inhibitor, single point]",–
O=[N+]([O-])c1cc(C2CCCCC2)c(O)c([N+](=O)[O-])c1,active: 3.85 µM,–

SMILES,Potency,"activity, negative = inhibition"
CCCOC(=O)NCCCN(C)C,inactive,–
CCOc1ccc2c(c1)C(C)=CC(C)(C)N2,"inconclusive: 68.2 µM [inhibitor, single point] and inconclusive: 68.6 µM [inhibitor, single point]",–
COc1cc(C(=O)NS(=O)(=O)c2ccccc2C)ccc1Cc1cn(C)c2ccc(NC(=O)OC3CCCC3)cc12,active: 26.6 µM,–
C1CCC(C(CC2CCCCN2)C2CCCCC2)CC1 (stereo not given),active: 5.96 µM,–
c1ccc2sc(SN(C3CCCCC3)C3CCCCC3)nc2c1,active: 21.4 µM,–
CCCCC/C=C\C=C\C(=O)OCC,active: 28.4 µM,–
CCCCCCc1ccc(O)cc1O,"inconclusive: 33.5 µM [inhibitor, single point] and inconclusive: 68.6 µM [inhibitor, single point]",–
O=[N+]([O-])c1ccccc1Nc1ccccc1,–,inactive: 3.34%
O=C(Nc1ccc2c(O)c(N=Nc3ccc(N=Nc4ccc(S(=O)(=O)O)cc4)cc3)c(S(=O)(=O)O)cc2c1)c1ccccc1,"inconclusive: 30.6 µM [inhibitor, partial curve]",–
c1ccc2cc3c(ccc4ccccc43)cc2c1,inactive,–
CC(C(O)c1ccccc1)N(C)CCOC(c1ccccc1)c1ccccc1 (stereo not given),active: 16.8 µM,–
CNCCC(Oc1ccc(C(F)(F)F)cc1)c1ccccc1 (stereo not given),active: 11.9 µM and active: 15.2 µM,–
Cc1c(C2(c3cc(Br)c(O)c(Br)c3C)OS(=O)(=O)c3ccccc32)cc(Br)c(O)c1Br,active: 21 µM,–
N=C1N=C(N)c2ccccc21,active: 15.4 µM,–
CCOCCOCCO,inactive,–
Nc1ccc(O)c(N)c1,"inconclusive: 68.1 µM [inhibitor, single point] and inconclusive: 30.6 µM [inhibitor, single point]",–
NC(=S)NC(N)=S,"inconclusive: 61.1 µM [inhibitor, single point]",–
COCCOc1cc2cc(C(=O)NC3CCN(C(C)C)CC3)n(CC(=O)Nc3ccc(Cl)cn3)c2cn1,"inconclusive: 60.4 µM [inhibitor, single point]",–
CC(C)c1nc(CN(C)C(=O)N[C@H](C(=O)N[C@@H](Cc2ccccc2)C[C@H](O)[C@H](Cc2ccccc2)NC(=O)OCc2cncs2)C(C)C)cs1,"inconclusive: 23.7 µM [inhibitor, partial curve]",–
CC(=O)c1ccc([N+](=O)[O-])cc1,–,inactive: 7.57%
